Assay results taken from the supplement of paper PMC8813932.
Where a name gives a salt, the structure may show the parent alone. ± gives the standard deviation of the averaged measurements. Some of the results follow. Repeats are few or missing, and single values can be far off.

Tests used:
Assay in all cases: log2 surviving fraction relative to plate median (drug vs vehicle, or drug+dl922-947 vs dl922-947 alone); ovarian cancer lines: OVCAR4 is platinum-sensitive while Ov4Cis resists cisplatin and Ov4Carbo carboplatin; higher = more cell survival
Details in all cases: compound concentration: 10 uM, 192 h
OVCAR4 = tested on: OVCAR4
Ov4Carbo = tested on: Ov4Carbo
Ov4Cis = tested on: Ov4Cis
[1] = dl922-947 oncolytic adenovirus co-treatment: MOI 10
[2] = dl922-947 oncolytic adenovirus co-treatment: none

| Compound | log2 surviving fraction (OVCAR4; [1]) | log2 surviving fraction (OVCAR4; [2]) | log2 surviving fraction (Ov4Carbo; [1]) | log2 surviving fraction (Ov4Carbo; [2]) | log2 surviving fraction (Ov4Cis; [1]) | log2 surviving fraction (Ov4Cis; [2]) |
| --- | --- | --- | --- | --- | --- | --- |
| CC(N/C(=N\C#N)Nc1ccncc1)C(C)(C)C (centres undefined) [Pinacidil] | -0.268 ± 0.49 | -1.27 ± 2.5 | 0.632 | 0.263 | 0.429 | -8.45 |
| CC(C)NCC(O)c1cc(O)cc(O)c1 (centres undefined) [Metaproterenol Sulfate] | -0.125 ± 0.22 | 0.00689 ± 0.091 | -0.55 | -0.0733 | -2.22 | 0.202 |
| Clc1ccc(COC(Cn2ccnc2)c2ccc(Cl)cc2Cl)c(Cl)c1 (centres undefined) [Miconazole (Monistat)] | -3.73 ± 3.1 | -4.57 ± 3 | -6.2 | -11.4 | -2.34 | -2.04 |
| Cn1c([N+](=O)[O-])cnc1COC(N)=O [Ronidazole] | 0.197 ± 0.38 | -0.053 ± 0.14 | 0.0394 | -0.335 | -0.123 | 0.421 |
| CCOC(=O)CC(=O)N1CCSC1COc1ccccc1OC (centres undefined) [Moguisteine] | -0.0719 ± 0.8 | 0.347 ± 0.11 | 0.604 | 0.345 | -0.405 | 0.593 |
| NC[C@H]1O[C@H](O[C@H]2[C@H](O)[C@@H](O[C@H]3O[C@H](CO)[C@@H](O)[C@H](N)[C@H]3O)[C@H](N)C[C@@H]2N)[C@H](N)C[C@@H]1O [Tobramycin] | -0.447 ± 0.31 | -0.00706 ± 0.088 | -0.4 | -0.518 | -1.78 | -0.0636 |
| CCC(C)(C)C(=O)O[C@H]1C[C@@H](C)C=C2C=C[C@H](C)[C@H](CC[C@@H]3C[C@@H](O)CC(=O)O3)[C@H]21 [Simvastatin (Zocor)] | -0.55 ± 0.9 | -3.16 ± 0.088 | -1.9 | -6.69 | -1.87 | -2.25 |
| COc1ccc(CC(C)NCC(O)c2ccc(O)c(NC=O)c2)cc1 (centres undefined) [Formoterol hemifumarate] | 1.8 ± 1.3 | -0.538 ± 0.22 | 2.03 | 0.0303 | 0.73 | 0.152 |
| CC(C(=O)O)c1ccc2c(c1)CC(=O)c1ccccc1S2 (centres undefined) [Zaltoprofen] | -0.138 ± 0.27 | 0.426 ± 0.36 | 1.76 | 0.0928 | 0.285 | 0.539 |
| CC[C@H]1OC(=O)[C@H](C)[C@@H](O[C@H]2C[C@@](C)(OC)[C@@H](O)[C@H](C)O2)[C@H](C)[C@@H](O[C@@H]2O[C@H](C)C[C@H](N(C)C)[C@H]2O)[C@](C)(O)C[C@@H](C)CN(C)[C@H](C)[C@@H](O)[C@]1(C)O [Azithromycin (Zithromax)] | -0.0862 ± 1.2 | 0.0687 ± 0.1 | 0.427 | -1.17 | 0.0377 | 0.293 |
| CCCNC(C)C(=O)Nc1c(C)csc1C(=O)OC (centres undefined) [Articaine HCl] | 0.354 ± 0.83 | -0.625 ± 0.93 | 0.266 | -0.727 | -0.0511 | 0.657 |
| Nc1nc(=O)c2c([nH]1)NCC(CNc1ccc(C(=O)N[C@@H](CCC(=O)O)C(=O)O)cc1)N2C=O (some centres undefined) [Leucovorin Calcium] | 0.918 ± 0.28 | -0.526 ± 3 | 0.745 | 2.26 | 0.684 | 0.384 |
| CCN[C@H]1C[C@H](C)S(=O)(=O)c2sc(S(N)(=O)=O)cc21 [Dorzolamide HCL] | -1.24 ± 0.64 | -1.39 ± 0.44 | -1.65 | -4.16 | -0.847 | -0.598 |
| C[C@H]1c2cccc(O)c2C(=O)C2=C(O)[C@]3(O)C(=O)C(C(N)=O)=C(O)[C@@H](N(C)C)[C@@H]3[C@@H](O)[C@@H]21 [Doxycycline HCl] | -0.0169 ± 0.2 | 0.00425 ± 0.92 | -0.516 | 0.000826 | 0.0233 | -0.702 |
| CS(=O)(=O)OCCCCOS(C)(=O)=O [Busulfan (Myleran, Busulfex)] | 0.315 ± 0.26 | 0.451 ± 0.25 | -0.613 | -0.28 | 0.323 | 0.0815 |
| O=P1(NCCCl)OCCCN1CCCl (centres undefined) [Ifosfamide] | -0.165 ± 1.4 | 0.426 ± 0.49 | 0.116 | 0.649 | 0.294 | 0.227 |
| OC[C@@H](O)[C@@H](O)[C@H](O)[C@H](O)CO [D-Mannitol (Osmitrol)] | -0.108 ± 0.64 | 0.652 ± 0.3 | 0.133 | 0.415 | 0.741 | 0.0351 |
| CC1=C(/C=C/C(C)=C/C=C/C(C)=C\C(=O)O)C(C)(C)CCC1 [Isotretinoin] | 0.178 ± 0.4 | -0.324 ± 0.53 | -0.0328 | -1.73 | -0.116 | 0.0107 |
| COc1cccc2c1C(=O)c1c(O)c3c(c(O)c1C2=O)C[C@@](O)(C(=O)CO)C[C@@H]3O[C@H]1C[C@H](N)[C@H](O)[C@H](C)O1 [Doxorubicin (Adriamycin)] | -7.8 ± 1.6 | -8.55 ± 9.1 | -5.59 | -10.5 | -3.68 | -11.1 |
| Nc1ccn([C@@H]2O[C@H](CO)[C@@H](O)C2(F)F)c(=O)n1 [Gemcitabine HCl (Gemzar)] | -6 ± 0.97 | -5.13 ± 4.7 | -6.92 | -11.1 | -5.36 | -7.45 |

| Compound | log2 surviving fraction (OVCAR4; [1]) | log2 surviving fraction (OVCAR4; [2]) | log2 surviving fraction (Ov4Carbo; [1]) | log2 surviving fraction (Ov4Carbo; [2]) | log2 surviving fraction (Ov4Cis; [1]) | log2 surviving fraction (Ov4Cis; [2]) |
| --- | --- | --- | --- | --- | --- | --- |
| CCCC(CCC)C(=O)O [Divalproex sodium] | 0.174 ± 0.45 | -0.462 ± 0.73 | 0.269 | -0.0115 | 0.222 | -0.0517 |
| CCN1CCCC1CNC(=O)c1cc(S(=O)(=O)CC)c(N)cc1OC (centres undefined) [Amisulpride] | 0.271 ± 0.05 | 0.79 ± 0.47 | 0.665 | 1.77 | 0.286 | 0.583 |
| C[N+]1(C)CCC(=C(c2ccccc2)c2ccccc2)CC1 [Diphemanil methylsulfate] | 0.306 ± 0.26 | 0.456 ± 0.18 | -0.459 | 0.568 | -0.0363 | -0.0291 |
| CN(C)[C@@H]1C(O)=C(C(=O)NCN2CCCC2)C(=O)[C@@]2(O)C(O)=C3C(=O)c4c(O)cccc4[C@@](C)(O)[C@H]3C[C@@H]12 [Rolitetracycline] | -0.186 ± 0.36 | 0.778 ± 0.14 | -1.55 | -0.579 | 0.192 | -0.118 |
| CN(C)CC/C=C1/c2ccccc2Sc2ccc(Cl)cc21 [Chlorprothixene] | 0.282 ± 1.6 | 0.2532 ± 0.0022 | -2.72 | 0.752 | -0.765 | 0.653 |
| CN1C(CCl)Nc2cc(Cl)c(S(N)(=O)=O)cc2S1(=O)=O (centres undefined) [Methyclothiazide] | -0.0288 ± 0.091 | 0.727 ± 0.24 | -0.34 | 0.362 | -0.21 | 0.431 |
| Nc1nc(NC2CC2)c2ncn([C@H]3C=C[C@@H](CO)C3)c2n1 [Abacavir sulfate] | 0.0147 ± 0.29 | -0.0835 ± 0.35 | 4.09 | 0.602 | -0.0817 | -0.429 |
| CC1=CC(=O)c2ccccc2C1=O [Menadione] | 0.692 ± 0.65 | -0.448 ± 0.81 | 0.119 | -0.271 | -0.348 | 0.427 |
| Nc1nc(=O)c2c([nH]1)NC[C@H](CNc1ccc(C(=O)N[C@@H](CCC(=O)O)C(=O)O)cc1)N2C=O [Calcium levofolinate (Calcium Folinate)] | 0.575 ± 0.5 | 0.62 ± 0.55 | 0.201 | 0.158 | 0.917 | 1.08 |
| CN1CCOC(c2ccccc2)c2ccccc2C1 (centres undefined) [Nefopam HCl] | -0.098 ± 0.73 | 0.415 ± 0.47 | 0.537 | 0.579 | 0.343 | -0.0138 |
| CC12CC3CC(C)(C1)CC(N)(C3)C2 [Memantine HCl (Namenda)] | -1.11 ± 0.16 | -1.26 ± 0.21 | 1.33 | -0.4 | -0.787 | -1.49 |
| O=C(O)C(=O)O.[NH-]C1CCCCC1[NH-].[Pt+2] (centres undefined) [Oxaliplatin (Eloxatin)] | 0.268 ± 1.3 | 1.87 ± 3.5 | -0.959 | 1.73 | 0.284 | -0.207 |
| CCN(CC)CCNC(=O)c1c(C)[nH]c(/C=C2\C(=O)Nc3ccc(F)cc32)c1C [Sunitinib Malate (Sutent)] | -1.22 ± 0.98 | -4.48 ± 0.76 | 0.949 | -2.02 | -2.87 | -7.12 |
| CNCCC(Oc1ccc(C(F)(F)F)cc1)c1ccccc1 (centres undefined) [Fluoxetine  HCl] | -3.25 ± 2.3 | -1.38 ± 0.14 | -5.94 | -3.23 | -4.99 | -2.21 |
| c1ccc([C@H]2CN3CCSC3=N2)cc1 [Levamisole Hydrochloride (Ergamisol)] | 0.309 ± 0.39 | 0.872 ± 0.35 | -0.906 | 0.25 | 0.124 | 0.6 |
| C[C@]12CC[C@@H]3c4ccc(O)cc4CC[C@H]3[C@@H]1CCC2=O [Estrone] | 1.1 ± 0.49 | 0.126 ± 0.63 | 0.832 | -0.32 | 0.129 | 0.394 |
| C#C[C@]1(O)CC[C@H]2[C@@H]3CCC4=CC(=O)CC[C@]4(C)[C@H]3CC[C@@]21C [Ethisterone] | 0.336 ± 0.43 | 0.11 ± 0.71 | 0.603 | -0.846 | -0.522 | 0.914 |
| CN[C@@H]1[C@H](O)[C@H](NC)[C@H]2O[C@@]3(O)C(=O)C[C@@H](C)O[C@H]3O[C@@H]2[C@H]1O [Spectinomycin  hydrochloride] | -0.311 ± 1.1 | -0.247 ± 0.8 | -0.378 | 0.841 | -0.913 | -0.398 |
| OC(CCN1CCCCC1)(c1ccccc1)c1ccccc1 [Pridinol Methanesulfonate] | -0.196 ± 1 | 0.302 ± 0.43 | -0.924 | 0.276 | 0.955 | -0.901 |
